This note sets out measurements from a collection of fitness landscapes (doi:10.1126/science.1257360).

To fix the notation:
B1: PhoQ; a variant is named by its letters at X, in order, P23837 (parent)
chain: MKKLLRLFFPLSLRVRFLLATAAVVLVLSLAYGMVALIGYSVSFDKTTFRLLRGESNLFYTLAKWENNKLHVELPENIDKQSPTMTLIYDENGQLLWAQRDVPWLMKMIQPDWLKSNGFHEIEADVNDTSLLLSGDHSIQQQLQEVREDDDDAEMTHSVAVNVYPATSRMPKLTIVVVDTIPVELKSSYMVWSWFIYVLSANLLLVIPLLWVAAWWSLRPIEALAKEVRELEEHNRELLNPATTRELTSLVRNLNRLLKSERERYDKYRTTLTDLTHSLKTPLXXLQXXLRSLRSEKMSVSDAEPVMLEQISRISQQIGYYLHRASMRGGTLLSRELHPVAPLLDNLTSALNKVYQRKGVNISLDISPEISFVGEQNDFVEVMGNVLDNACKYCLEFVEISARQTDEHLYIVVEDDGPGIPLSKREVIFDRGQRVDTLRPGQGVGLAVAREITEQYEGKIVAGESMLGGARMEVIFGRQHSAPKDE

The list shows a part of the results.

This test covers variants of B1. The experiment in a line: enrichment ratio after two sorts for PhoP signalling (ratio (wild type AVST 3.29)); higher = more functional. As to conditions: with PhoP (E. coli).
Turning to HESF, the enrichment ratio was ≤ 0.25.

With QKIQ, the enrichment ratio was ≤ 0.25.

Take SMIR: the enrichment ratio is ≤ 0.25.

As for GIRR, the enrichment ratio is ≤ 0.25.

As for FWCC, the enrichment ratio was ≤ 0.25.

On to EKFI, for which the enrichment ratio was ≤ 0.25.

For the variant WLAV, the enrichment ratio is ≤ 0.25.

Turning to TQFW, the enrichment ratio was ≤ 0.25.

As for KALT, the enrichment ratio is ≤ 0.25.

For the variant DNHV, the enrichment ratio was ≤ 0.25.

Take MNPS: the enrichment ratio was ≤ 0.25.

With ELES, the enrichment ratio was ≤ 0.25.

Regarding WVFC, the enrichment ratio was ≤ 0.25.

Take LGKV: the enrichment ratio was ≤ 0.25.

As to SPCN, the enrichment ratio is ≤ 0.25.

For YVWM, the enrichment ratio is ≤ 0.25.

For HCPV, the enrichment ratio is ≤ 0.25.

HCPQ: the enrichment ratio was ≤ 0.25.

For the variant PKWL, the enrichment ratio was ≤ 0.25.

Consider IHEM, for which the enrichment ratio was ≤ 0.25.

Regarding SPLS, the enrichment ratio is ≤ 0.25.

With FHGT, the enrichment ratio was ≤ 0.25.

DQDI: the enrichment ratio is ≤ 0.25.

Consider GFQD, for which the enrichment ratio was ≤ 0.25.

Consider RWVI, for which the enrichment ratio was ≤ 0.25.

Consider IKMD, for which the enrichment ratio was ≤ 0.25.

Take NNHS: the enrichment ratio was ≤ 0.25.

As for YNQD, the enrichment ratio was ≤ 0.25.

On to NCKV, for which the enrichment ratio was ≤ 0.25.

On to KCGQ, for which the enrichment ratio was ≤ 0.25.

In the case of TTNC, the enrichment ratio was found to be 4.75.

For GYYP, the enrichment ratio is ≤ 0.25.

TWMD: the enrichment ratio was ≤ 0.25.

Consider VLWR, for which the enrichment ratio is ≤ 0.25.

Turning to KMGL, the enrichment ratio is ≤ 0.25.

As for NCCP, the enrichment ratio was ≤ 0.25.

MSQN: the enrichment ratio is ≤ 0.25.

Turning to TPQC, the enrichment ratio was ≤ 0.25.

Take GMNQ: the enrichment ratio was ≤ 0.25.

Turning to FPHH, the enrichment ratio is ≤ 0.25.

With EPNF, the enrichment ratio is ≤ 0.25.

For the variant RPLG, the enrichment ratio was ≤ 0.25.

ASIP: the enrichment ratio was ≤ 0.25.

Turning to ERTK, the enrichment ratio was ≤ 0.25.

GVKG: the enrichment ratio was ≤ 0.25.

Consider MHKL, for which the enrichment ratio was ≤ 0.25.

RGSI: the enrichment ratio is ≤ 0.25.

In the case of SPIS, the enrichment ratio was ≤ 0.25.

IKCI: the enrichment ratio was ≤ 0.25.

Regarding FRAW, the enrichment ratio was ≤ 0.25.

Turning to RRSL, the enrichment ratio is ≤ 0.25.

In the case of AMGA, the enrichment ratio was ≤ 0.25.

Take IAEN: the enrichment ratio was ≤ 0.25.

Take LAWY: the enrichment ratio was ≤ 0.25.

As for IWPC, the enrichment ratio is ≤ 0.25.

With IDSY, the enrichment ratio was ≤ 0.25.

For ECCG, the enrichment ratio was ≤ 0.25.

As for PARR, the enrichment ratio is ≤ 0.25.

With TKYF, the enrichment ratio is ≤ 0.25.

Consider SAAT, for which the enrichment ratio came to 3.66.

On to DLNV, for which the enrichment ratio is ≤ 0.25.

In the case of HKTF, the enrichment ratio is ≤ 0.25.

As to LAKN, the enrichment ratio was ≤ 0.25.

Turning to RTKS, the enrichment ratio was ≤ 0.25.

As for KSCR, the enrichment ratio was ≤ 0.25.

As to IFGW, the enrichment ratio was ≤ 0.25.

Regarding MCIM, the enrichment ratio is ≤ 0.25.

In the case of TYFY, the enrichment ratio was ≤ 0.25.

TQSA: the enrichment ratio turned out to be 19.8.

Consider DFVH, for which the enrichment ratio is ≤ 0.25.

Regarding NHSH, the enrichment ratio was ≤ 0.25.

As for GFMK, the enrichment ratio is ≤ 0.25.

Regarding ERNL, the enrichment ratio is ≤ 0.25.

Take RNMP: the enrichment ratio is ≤ 0.25.

With NEHR, the enrichment ratio is ≤ 0.25.

Consider RVGN, for which the enrichment ratio was ≤ 0.25.

On to LPHI, for which the enrichment ratio is ≤ 0.25.

IGCL: the enrichment ratio was ≤ 0.25.

As to RTLS, the enrichment ratio was ≤ 0.25.

Turning to PPHN, the enrichment ratio is ≤ 0.25.

KSDD: the enrichment ratio was ≤ 0.25.

Regarding HNWN, the enrichment ratio was ≤ 0.25.

In the case of VGIA, the enrichment ratio was ≤ 0.25.

With HNMS, the enrichment ratio is ≤ 0.25.

For the variant EPNP, the enrichment ratio was ≤ 0.25.

As to TWSP, the enrichment ratio was ≤ 0.25.

As to RTGY, the enrichment ratio was ≤ 0.25.

In the case of MDSV, the enrichment ratio is ≤ 0.25.

On to NCAR, for which the enrichment ratio is ≤ 0.25.

For the variant GWTI, the enrichment ratio was ≤ 0.25.

As for FCIK, the enrichment ratio was ≤ 0.25.

In the case of GYPR, the enrichment ratio is 0.756.

Take GRMP: the enrichment ratio was ≤ 0.25.

As for KFPF, the enrichment ratio is ≤ 0.25.

Consider QKTC, for which the enrichment ratio was ≤ 0.25.

As to MCTF, the enrichment ratio worked out at 1.54.

For the variant RMFE, the enrichment ratio is ≤ 0.25.

FTMR: the enrichment ratio is ≤ 0.25.

Take NHSN: the enrichment ratio is ≤ 0.25.

For the variant VDRR, the enrichment ratio was ≤ 0.25.

YLTS: the enrichment ratio turned out to be 0.315.

As to APRF, the enrichment ratio was ≤ 0.25.

Take GEHF: the enrichment ratio was ≤ 0.25.

EDPI: the enrichment ratio was ≤ 0.25.

Regarding FFFM, the enrichment ratio is ≤ 0.25.

As to NFMF, the enrichment ratio is ≤ 0.25.

In the case of WPKS, the enrichment ratio is ≤ 0.25.

NISV: the enrichment ratio came to 3.96.

For the variant DYVQ, the enrichment ratio was ≤ 0.25.

Turning to TVWP, the enrichment ratio was ≤ 0.25.

Turning to MKQS, the enrichment ratio was ≤ 0.25.

On to LTKP, for which the enrichment ratio is ≤ 0.25.

For DSLS, the enrichment ratio is ≤ 0.25.

As for SCSG, the enrichment ratio stood at 20.2.

Regarding DCQT, the enrichment ratio was ≤ 0.25.

With GPSF, the enrichment ratio was ≤ 0.25.

In the case of QILM, the enrichment ratio was ≤ 0.25.

With IRSY, the enrichment ratio was ≤ 0.25.

Consider VYVF, for which the enrichment ratio was ≤ 0.25.

With CLMC, the enrichment ratio is ≤ 0.25.

On to KDVK, for which the enrichment ratio is ≤ 0.25.

Take ECNH: the enrichment ratio is ≤ 0.25.

Regarding EYYL, the enrichment ratio was ≤ 0.25.

As to HDEI, the enrichment ratio is ≤ 0.25.

For the variant ISDT, the enrichment ratio is ≤ 0.25.

Take LQTM: the enrichment ratio was ≤ 0.25.

On to NRIT, for which the enrichment ratio was ≤ 0.25.

With RWQD, the enrichment ratio is ≤ 0.25.

On to FRFH, for which the enrichment ratio was ≤ 0.25.

Take GCER: the enrichment ratio is ≤ 0.25.

Turning to NKDT, the enrichment ratio is ≤ 0.25.

For the variant IIFV, the enrichment ratio is ≤ 0.25.

As to DRIW, the enrichment ratio is ≤ 0.25.

Turning to RTQP, the enrichment ratio is ≤ 0.25.

As to HTQL, the enrichment ratio was ≤ 0.25.

For the variant PLCQ, the enrichment ratio is ≤ 0.25.

As for DERI, the enrichment ratio is ≤ 0.25.

SRLN: the enrichment ratio was ≤ 0.25.

Regarding DRGH, the enrichment ratio is ≤ 0.25.

For VDMQ, the enrichment ratio is ≤ 0.25.

Consider NYVI, for which the enrichment ratio was ≤ 0.25.

As to NEAM, the enrichment ratio was ≤ 0.25.

VMIW: the enrichment ratio is ≤ 0.25.

As to KDPT, the enrichment ratio is ≤ 0.25.

Regarding DKME, the enrichment ratio is ≤ 0.25.

Take DQTD: the enrichment ratio was ≤ 0.25.

Turning to PCER, the enrichment ratio was ≤ 0.25.

WQSN: the enrichment ratio was ≤ 0.25.

As to EIDH, the enrichment ratio was ≤ 0.25.

In the case of DTAH, the enrichment ratio was ≤ 0.25.

As to VKHS, the enrichment ratio was ≤ 0.25.

Consider LCND, for which the enrichment ratio was ≤ 0.25.

Regarding NAIL, the enrichment ratio was ≤ 0.25.
